Where “and” joins values, the source holds several entries; their conditions need not be identical. Identical values can stand only once.

Results on two molecules are retold here after publication PMC5062570 (Nature Communications, 2016).

Experiment [1] concerns the target PF-7802-labelled proteins in ARPE-19 cells (Homo sapiens, UniProt Q13740). To be noted: protein ALCAM CD166 antigen (Q13740).
The target in experiment [2] is PF-7802-labelled proteins in ARPE-19 cells (Homo sapiens, UniProt P35580). The note with it: for Median SILAC Ratio (Heavy/Light): protein MYH10 Myosin-10 (P35580), replicates in separate columns.
Experiment [3] concerns the target PF-7802-labelled proteins in ARPE-19 cells (Homo sapiens, UniProt P22695). To be noted: UQCRC2 Cytochrome b-c1 complex subunit 2, mitochondrial (P22695).
Experiment [4] concerns the target PF-7802-labelled proteins in ARPE-19 cells (Homo sapiens, UniProt Q7KZF4). The note with it: SND1 Staphylococcal nuclease domain-containing protein 1 (Q7KZF4).
Experiment [5] has as its target PF-7802-labelled proteins in ARPE-19 cells (Homo sapiens, UniProt Q01813). The note with it: protein PFKP 6-phosphofructokinase type C (Q01813); replicates in separate columns.
Experiment [6] concerns the target PF-7802-labelled proteins in ARPE-19 cells (Homo sapiens, UniProt P62241). To be noted: protein RPS8 40S ribosomal protein S8, P62241.
The target in experiment [7] is PF-7802-labelled proteins in ARPE-19 cells (Homo sapiens, UniProt P27635). The note with it: protein RPL10 60S ribosomal protein L10, P27635.
In experiment [8] the target is PF-7802-labelled proteins in ARPE-19 cells (Homo sapiens, UniProt Q9NZM1). To be noted: for Median SILAC Ratio (Heavy/Light): protein MYOF Myoferlin (Q9NZM1), replicates in separate columns.
Experiment [9] deals with PF-7802-labelled proteins in ARPE-19 cells (Homo sapiens, UniProt O95782). To be noted: protein AP2A1 AP-2 complex subunit alpha-1 (O95782).
Experiment [10] has as its target PF-7802-labelled proteins in ARPE-19 cells (Homo sapiens, UniProt P68371). The note with it: for Median SILAC Ratio (Heavy/Light): TUBB4B Tubulin beta-4B chain (P68371).
Experiment [11] has as its target PF-7802-labelled proteins in ARPE-19 cells (Homo sapiens, UniProt P29144). To be noted: TPP2 Tripeptidyl-peptidase 2 (P29144).
The target of experiment [12] is PF-7802-labelled proteins in ARPE-19 cells (Homo sapiens, UniProt P48735). To be noted: protein IDH2 Isocitrate dehydrogenase [NADP], mitochondrial (P48735); one column per replicate.
Experiment [13] deals with PF-7802-labelled proteins in ARPE-19 cells (Homo sapiens, UniProt P48643). The note with it: protein CCT5 T-complex protein 1 subunit epsilon (P48643).
Experiment [14] concerns the target PF-7802-labelled proteins in ARPE-19 cells (Homo sapiens, UniProt P0DMV9). To be noted: for Median SILAC Ratio (Heavy/Light): protein HSPA1B Heat shock 70 kDa protein 1A/1B (P08107), one column per replicate.
Experiment [15] concerns the target PF-7802-labelled proteins in ARPE-19 cells (Homo sapiens, UniProt Q14974). To be noted: protein KPNB1 Importin subunit beta-1 (Q14974); one column per replicate.
Experiment [16] addresses T1, PF-7802-labelled proteins in ARPE-19 cells (Homo sapiens, UniProt P21589).
T1 sequence (P21589 27-574): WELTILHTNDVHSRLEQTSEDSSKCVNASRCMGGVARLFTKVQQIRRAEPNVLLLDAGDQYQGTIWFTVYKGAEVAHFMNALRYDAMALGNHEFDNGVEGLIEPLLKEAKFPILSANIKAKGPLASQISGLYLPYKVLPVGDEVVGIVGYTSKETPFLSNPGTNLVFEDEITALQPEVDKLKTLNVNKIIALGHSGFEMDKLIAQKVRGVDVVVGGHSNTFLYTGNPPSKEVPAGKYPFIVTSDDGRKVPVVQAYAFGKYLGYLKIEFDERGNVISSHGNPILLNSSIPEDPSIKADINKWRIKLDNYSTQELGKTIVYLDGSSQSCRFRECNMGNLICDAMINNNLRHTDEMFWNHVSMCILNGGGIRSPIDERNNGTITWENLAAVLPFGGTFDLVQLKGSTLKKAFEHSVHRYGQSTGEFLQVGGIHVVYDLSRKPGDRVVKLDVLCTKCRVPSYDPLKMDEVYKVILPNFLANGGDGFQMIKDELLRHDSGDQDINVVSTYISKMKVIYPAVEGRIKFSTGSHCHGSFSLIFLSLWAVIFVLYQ
To be noted: for Median SILAC Ratio (Heavy/Light): protein NT5E'-nucleotidase (P21589), replicates in separate columns.

Experiment [17] addresses PF-7802-labelled proteins in ARPE-19 cells (Homo sapiens, UniProt P46940). The note with it: for Median SILAC Ratio (Heavy/Light): protein IQGAP1 Ras GTPase-activating-like protein IQGAP1 (P46940), one column per replicate.
Experiment [18] addresses PF-7802-labelled proteins in ARPE-19 cells (Homo sapiens, UniProt P14314). To be noted: protein PRKCSH Glucosidase 2 subunit beta, P14314.
For experiment [19], the target named is PF-7802-labelled proteins in ARPE-19 cells (Homo sapiens, UniProt P49821). The note with it: protein NDUFV1 NADH dehydrogenase [ubiquinone] flavoprotein 1, mitochondrial (P49821); replicates in separate columns.

Sequence of UniProt P46940 (P46940 whole entry): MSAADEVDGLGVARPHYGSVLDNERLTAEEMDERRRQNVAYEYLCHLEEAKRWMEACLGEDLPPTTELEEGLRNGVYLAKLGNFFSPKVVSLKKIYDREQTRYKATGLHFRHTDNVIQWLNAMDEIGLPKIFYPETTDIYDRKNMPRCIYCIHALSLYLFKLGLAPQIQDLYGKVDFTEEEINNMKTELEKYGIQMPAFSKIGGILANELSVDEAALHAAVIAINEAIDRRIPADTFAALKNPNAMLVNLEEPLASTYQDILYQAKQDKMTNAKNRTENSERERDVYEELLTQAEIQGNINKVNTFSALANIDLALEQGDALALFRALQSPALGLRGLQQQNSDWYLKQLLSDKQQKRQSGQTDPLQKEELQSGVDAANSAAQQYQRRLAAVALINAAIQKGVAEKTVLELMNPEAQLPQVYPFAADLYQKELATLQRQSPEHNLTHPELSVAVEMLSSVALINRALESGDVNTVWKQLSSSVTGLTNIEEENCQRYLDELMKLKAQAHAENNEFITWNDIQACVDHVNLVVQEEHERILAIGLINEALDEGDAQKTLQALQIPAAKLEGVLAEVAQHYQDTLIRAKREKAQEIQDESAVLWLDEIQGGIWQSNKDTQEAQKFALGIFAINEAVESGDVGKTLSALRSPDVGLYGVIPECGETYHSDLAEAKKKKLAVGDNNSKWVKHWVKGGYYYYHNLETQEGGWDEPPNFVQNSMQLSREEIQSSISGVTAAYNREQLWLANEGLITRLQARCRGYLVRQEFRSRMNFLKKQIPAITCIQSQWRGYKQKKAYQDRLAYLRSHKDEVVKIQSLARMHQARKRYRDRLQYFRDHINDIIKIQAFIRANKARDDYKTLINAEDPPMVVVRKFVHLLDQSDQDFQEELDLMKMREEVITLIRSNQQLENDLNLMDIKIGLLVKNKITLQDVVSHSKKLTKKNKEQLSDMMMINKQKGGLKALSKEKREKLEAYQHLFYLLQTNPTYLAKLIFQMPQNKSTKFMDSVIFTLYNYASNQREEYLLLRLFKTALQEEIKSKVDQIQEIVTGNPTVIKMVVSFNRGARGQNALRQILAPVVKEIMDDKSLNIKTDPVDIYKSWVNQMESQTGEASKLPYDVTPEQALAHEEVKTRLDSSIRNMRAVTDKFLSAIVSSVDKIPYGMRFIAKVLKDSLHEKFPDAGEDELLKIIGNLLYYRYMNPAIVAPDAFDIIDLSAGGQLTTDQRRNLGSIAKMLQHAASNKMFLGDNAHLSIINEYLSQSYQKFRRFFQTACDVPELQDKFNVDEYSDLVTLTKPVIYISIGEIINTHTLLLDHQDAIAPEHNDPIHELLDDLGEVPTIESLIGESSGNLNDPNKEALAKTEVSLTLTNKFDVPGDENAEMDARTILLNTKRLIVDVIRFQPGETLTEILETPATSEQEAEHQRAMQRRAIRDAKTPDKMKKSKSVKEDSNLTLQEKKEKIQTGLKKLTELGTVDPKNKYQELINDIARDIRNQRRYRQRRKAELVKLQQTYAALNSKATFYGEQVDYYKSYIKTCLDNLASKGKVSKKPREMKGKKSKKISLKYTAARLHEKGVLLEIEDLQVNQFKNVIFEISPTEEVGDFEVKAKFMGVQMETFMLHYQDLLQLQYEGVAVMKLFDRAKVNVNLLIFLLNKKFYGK
Sequence of UniProt Q01813 (Q01813 whole entry): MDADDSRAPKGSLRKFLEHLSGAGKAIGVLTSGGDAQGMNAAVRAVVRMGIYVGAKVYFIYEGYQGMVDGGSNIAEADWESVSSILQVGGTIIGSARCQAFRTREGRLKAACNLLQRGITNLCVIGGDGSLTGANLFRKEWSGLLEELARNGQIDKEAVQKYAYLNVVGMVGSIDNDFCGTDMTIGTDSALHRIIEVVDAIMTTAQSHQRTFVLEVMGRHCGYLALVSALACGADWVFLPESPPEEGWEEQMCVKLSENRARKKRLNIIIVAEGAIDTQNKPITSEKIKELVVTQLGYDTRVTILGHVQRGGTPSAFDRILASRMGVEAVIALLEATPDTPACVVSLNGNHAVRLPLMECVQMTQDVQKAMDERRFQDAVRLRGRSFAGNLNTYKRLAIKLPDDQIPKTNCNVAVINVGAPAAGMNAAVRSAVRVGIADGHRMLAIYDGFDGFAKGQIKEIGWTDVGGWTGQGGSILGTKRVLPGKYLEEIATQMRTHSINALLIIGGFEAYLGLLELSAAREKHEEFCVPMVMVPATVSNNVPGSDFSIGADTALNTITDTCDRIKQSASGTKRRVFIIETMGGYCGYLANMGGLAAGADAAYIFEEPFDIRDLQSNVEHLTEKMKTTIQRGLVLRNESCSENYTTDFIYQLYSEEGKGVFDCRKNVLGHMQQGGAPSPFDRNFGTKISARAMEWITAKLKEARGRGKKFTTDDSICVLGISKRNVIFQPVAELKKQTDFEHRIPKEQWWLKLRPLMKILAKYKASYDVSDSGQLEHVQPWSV
Sequence of UniProt P35580 (P35580 whole entry): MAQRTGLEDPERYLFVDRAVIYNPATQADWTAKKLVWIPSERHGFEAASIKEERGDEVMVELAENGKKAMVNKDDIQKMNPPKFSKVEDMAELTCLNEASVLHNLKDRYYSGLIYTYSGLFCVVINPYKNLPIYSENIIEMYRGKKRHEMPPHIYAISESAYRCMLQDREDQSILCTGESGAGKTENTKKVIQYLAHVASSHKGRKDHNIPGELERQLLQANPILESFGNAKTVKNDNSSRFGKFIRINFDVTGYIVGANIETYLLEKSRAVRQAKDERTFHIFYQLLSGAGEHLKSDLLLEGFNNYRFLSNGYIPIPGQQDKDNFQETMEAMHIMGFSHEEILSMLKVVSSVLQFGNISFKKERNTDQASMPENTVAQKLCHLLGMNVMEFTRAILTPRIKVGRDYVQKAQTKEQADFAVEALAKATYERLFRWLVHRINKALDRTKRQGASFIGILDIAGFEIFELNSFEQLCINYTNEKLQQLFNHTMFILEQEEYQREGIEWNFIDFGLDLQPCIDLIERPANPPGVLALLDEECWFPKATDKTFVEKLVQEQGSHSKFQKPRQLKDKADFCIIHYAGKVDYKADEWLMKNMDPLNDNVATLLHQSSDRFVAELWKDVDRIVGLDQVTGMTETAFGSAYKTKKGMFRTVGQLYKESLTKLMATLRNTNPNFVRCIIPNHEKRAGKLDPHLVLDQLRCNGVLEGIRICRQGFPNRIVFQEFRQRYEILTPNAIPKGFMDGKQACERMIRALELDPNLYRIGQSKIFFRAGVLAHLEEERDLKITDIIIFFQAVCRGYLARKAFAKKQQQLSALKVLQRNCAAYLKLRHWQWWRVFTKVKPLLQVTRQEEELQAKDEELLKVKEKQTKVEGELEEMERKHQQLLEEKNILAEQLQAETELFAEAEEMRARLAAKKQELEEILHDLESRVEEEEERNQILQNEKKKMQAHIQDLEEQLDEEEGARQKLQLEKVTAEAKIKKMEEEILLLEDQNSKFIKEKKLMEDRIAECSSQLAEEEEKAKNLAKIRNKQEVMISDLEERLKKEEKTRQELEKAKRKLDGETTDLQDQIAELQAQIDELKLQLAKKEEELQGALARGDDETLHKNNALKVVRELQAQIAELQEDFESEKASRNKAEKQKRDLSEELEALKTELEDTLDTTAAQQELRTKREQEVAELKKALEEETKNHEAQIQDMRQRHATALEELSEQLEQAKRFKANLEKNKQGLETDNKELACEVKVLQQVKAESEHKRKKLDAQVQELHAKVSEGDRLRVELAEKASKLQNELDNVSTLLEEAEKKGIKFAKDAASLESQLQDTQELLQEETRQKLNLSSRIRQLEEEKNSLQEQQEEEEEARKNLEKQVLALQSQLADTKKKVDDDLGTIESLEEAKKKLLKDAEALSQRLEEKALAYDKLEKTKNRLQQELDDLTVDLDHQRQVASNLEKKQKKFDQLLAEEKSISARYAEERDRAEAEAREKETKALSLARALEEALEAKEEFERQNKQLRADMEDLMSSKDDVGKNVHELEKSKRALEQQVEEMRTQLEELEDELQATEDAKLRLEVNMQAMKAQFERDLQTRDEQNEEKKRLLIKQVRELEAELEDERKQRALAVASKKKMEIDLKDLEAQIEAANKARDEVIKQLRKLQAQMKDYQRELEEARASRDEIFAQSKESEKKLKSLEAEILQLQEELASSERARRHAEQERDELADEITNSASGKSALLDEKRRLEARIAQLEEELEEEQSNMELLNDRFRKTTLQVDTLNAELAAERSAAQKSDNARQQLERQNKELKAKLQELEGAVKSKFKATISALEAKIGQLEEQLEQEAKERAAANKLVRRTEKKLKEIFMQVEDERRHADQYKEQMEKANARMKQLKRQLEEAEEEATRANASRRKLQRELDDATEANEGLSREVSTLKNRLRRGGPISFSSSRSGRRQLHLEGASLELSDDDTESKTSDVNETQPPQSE
Sequence of UniProt P68371 (P68371 whole entry): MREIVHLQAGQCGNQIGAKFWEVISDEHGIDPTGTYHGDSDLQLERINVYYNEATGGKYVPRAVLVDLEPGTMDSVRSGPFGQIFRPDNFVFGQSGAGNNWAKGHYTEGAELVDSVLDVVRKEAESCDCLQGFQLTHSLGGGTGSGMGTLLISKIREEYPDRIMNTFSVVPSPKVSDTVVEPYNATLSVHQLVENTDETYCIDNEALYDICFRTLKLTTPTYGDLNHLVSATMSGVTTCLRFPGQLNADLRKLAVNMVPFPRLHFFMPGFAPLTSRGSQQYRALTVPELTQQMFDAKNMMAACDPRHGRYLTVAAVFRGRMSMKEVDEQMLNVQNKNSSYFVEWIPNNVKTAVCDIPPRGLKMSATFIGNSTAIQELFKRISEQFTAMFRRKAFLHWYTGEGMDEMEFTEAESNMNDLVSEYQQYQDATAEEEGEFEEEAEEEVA

On to `CNC1CCN(C(=O)C[C@@H](Cc2ccccc2)C(=O)N[C@@H](CSC)C(=O)N[C@@H](CC2CCCCC2)[C@@H](O)C(=O)OC(C)C)CC1` [CP-108671, reference compound], for which the “Median SILAC Ratio (Heavy/Light)” value in [1] was 1.234; in experiment [2], 1.722; in experiment [3], 1.123; in experiment [4], 1.181; in [5] it was 2.393; in [6], 1.683. Further, the “Median SILAC Ratio (Heavy/Light)” value in experiment [7] is 1.724; in experiment [8], 1.091; in experiment [9], 1.064; in experiment [10], 2.229 and 1.333; in experiment [11], 1.313; in experiment [12], 0.8931. In addition, the “Median SILAC Ratio (Heavy/Light)” value in experiment [13] is given as 0.98; in experiment [14] it was 1.387; in [15] it was 1.304; in experiment [16] it was 0.863; in experiment [17] it was 1.525; in experiment [18], 1.007. Further, the “Median SILAC Ratio (Heavy/Light)” value in experiment [19] worked out at 0.8453. Moreover, the “SILAC ratio (DMSO/CP-108671)” value in experiment [2] (P35580 MYH10 Myosin-10) worked out at 0.58; in experiment [8] (Q9NZM1 MYOF Myoferlin), 0.92; in [10] (P68371 TUBB4B Tubulin beta-4B chain), 0.45; in [14] (P08107 HSPA1B Heat shock 70 kDa protein 1A/1B), 0.72; in [16] (P21589 NT5E 5'-nucleotidase), 1.16; in [17] (P46940 IQGAP1 Ras GTPase-activating-like protein IQGAP1), 0.66.

Turning to `Cc1cc([C@H]2C[C@H]3[C@@H](C)SC(N)=N[C@@]3(c3ccc(F)cc3F)CO2)on1` [PF-9283], the “Median SILAC Ratio (Heavy/Light)” value is 1.453 in [1]; 1.688 in [2]; 1.402 and 2.53 in experiment [3]; 1.115 in experiment [4]; 2.073 and 1.995 in [5]; 1.7814 and 0.9885 and 1.1 in experiment [6]. Further, the “Median SILAC Ratio (Heavy/Light)” value in experiment [7] was 1.431 and 2.456; in experiment [8], 1.388; in experiment [9], 1.468; in experiment [10] it was 1.998 and 1.162 and 1.78; in experiment [11] it was 1.203; in experiment [12], 1.372. The “Median SILAC Ratio (Heavy/Light)” value is 0.9006 in experiment [13]; 1.491 and 2.388 and 2.9976 in [14]; 1.475 and 1.261 in experiment [15]; 1.036 in [16]; 1.659 and 1.525 in [17]; 1.309 in [18]. In experiment [19], the “Median SILAC Ratio (Heavy/Light)” value is listed as 0.7378.
